From publication PMC8571081 come the findings set out here.

Protein sequences, listed by entry. Tags and fused reporters are not part of them. Lines headed by an entry give the natural chain unless they say otherwise; changes in a name come on top. Chains listed by the source or under a name are the forms on record and can include a tag or linker. Residues count along the entry.
human p40, FLAG-tagged (FLAG-hp40) (P29460, residues 23-328): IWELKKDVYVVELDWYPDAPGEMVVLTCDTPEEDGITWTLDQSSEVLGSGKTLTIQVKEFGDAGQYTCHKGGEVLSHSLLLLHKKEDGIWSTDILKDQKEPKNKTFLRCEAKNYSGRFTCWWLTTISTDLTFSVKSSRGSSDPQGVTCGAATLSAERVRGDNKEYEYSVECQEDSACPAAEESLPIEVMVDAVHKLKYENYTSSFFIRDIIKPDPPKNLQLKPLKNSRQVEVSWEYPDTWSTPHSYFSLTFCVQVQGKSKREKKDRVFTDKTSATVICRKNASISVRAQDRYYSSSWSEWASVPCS
human p40 D36K/W37K/Y38K, FLAG-tagged (P29460, form named): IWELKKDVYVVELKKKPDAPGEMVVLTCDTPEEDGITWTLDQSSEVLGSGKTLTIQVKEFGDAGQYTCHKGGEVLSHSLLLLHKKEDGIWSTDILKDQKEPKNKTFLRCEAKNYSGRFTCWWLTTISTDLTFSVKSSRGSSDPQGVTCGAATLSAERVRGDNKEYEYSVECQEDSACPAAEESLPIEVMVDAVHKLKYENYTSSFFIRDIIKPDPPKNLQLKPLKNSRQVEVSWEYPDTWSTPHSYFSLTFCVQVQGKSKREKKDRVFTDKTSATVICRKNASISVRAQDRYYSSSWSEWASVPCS
UniProt Q5VWK5, residues 24-629: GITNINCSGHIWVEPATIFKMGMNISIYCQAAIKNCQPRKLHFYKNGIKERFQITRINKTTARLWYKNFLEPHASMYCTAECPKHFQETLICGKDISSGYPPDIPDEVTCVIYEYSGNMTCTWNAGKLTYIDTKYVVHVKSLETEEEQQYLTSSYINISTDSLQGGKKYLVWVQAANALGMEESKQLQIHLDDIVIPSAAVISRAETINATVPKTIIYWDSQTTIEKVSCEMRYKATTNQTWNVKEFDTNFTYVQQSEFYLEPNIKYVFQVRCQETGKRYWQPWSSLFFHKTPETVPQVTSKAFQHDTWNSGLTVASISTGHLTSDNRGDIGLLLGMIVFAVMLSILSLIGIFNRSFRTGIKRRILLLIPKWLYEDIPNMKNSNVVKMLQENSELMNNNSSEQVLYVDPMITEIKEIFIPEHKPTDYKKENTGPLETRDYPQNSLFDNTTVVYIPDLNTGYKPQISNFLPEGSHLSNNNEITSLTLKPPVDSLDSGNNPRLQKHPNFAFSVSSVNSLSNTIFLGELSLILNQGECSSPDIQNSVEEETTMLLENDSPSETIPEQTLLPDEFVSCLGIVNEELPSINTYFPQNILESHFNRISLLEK

No constants are given. Whether binding was seen depends on the method and setting. For some of these results: Binding seen in cells or lysates may run through a third protein. Some entries that bind do so weakly or less than the wild type. For some of these results: Where a sequence is shown, tags or fusion partners need not be part of it.

Assay [1] addresses human p40 D36K/W37K/Y38K, FLAG-tagged (human) (UniProt P29460). As to the kind of experiment: co-IP; lysates of transiently transfected HEK293T cells (50 mM Tris-HCl pH 7.5, 1 mM EDTA, 150 mM NaCl, 1% Triton X-100) with FLAG-tagged cytokine mixed with lysates with full-length receptor; ANTI-FLAG M2 affinity gel overnight at 4 °C; Western blot. (Immunoblotting shows a protein as a band on a membrane.)

Assay [2] deals with human p40, FLAG-tagged (FLAG-hp40) (human) (UniProt P29460). The assay is described as above.
Assay [3] has as its target T1, FLAG-mp19 coexpressed with mp40D36K/W37K/T38K (murine) (UniProt Q9EQ14+P43432).
T1 sequence 1: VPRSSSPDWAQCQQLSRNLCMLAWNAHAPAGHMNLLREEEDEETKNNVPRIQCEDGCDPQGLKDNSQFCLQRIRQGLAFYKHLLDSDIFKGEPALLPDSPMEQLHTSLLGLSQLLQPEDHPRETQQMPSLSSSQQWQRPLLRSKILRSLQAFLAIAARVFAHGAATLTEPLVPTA
T1 sequence 2: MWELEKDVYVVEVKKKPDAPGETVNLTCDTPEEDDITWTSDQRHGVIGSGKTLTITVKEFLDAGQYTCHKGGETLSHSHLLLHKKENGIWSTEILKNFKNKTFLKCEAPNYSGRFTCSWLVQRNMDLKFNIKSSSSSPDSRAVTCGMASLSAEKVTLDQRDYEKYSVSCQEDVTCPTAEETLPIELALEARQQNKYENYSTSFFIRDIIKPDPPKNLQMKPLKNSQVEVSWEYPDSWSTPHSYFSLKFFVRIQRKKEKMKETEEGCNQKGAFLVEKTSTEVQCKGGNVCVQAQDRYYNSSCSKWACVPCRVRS
The description is as above.

The target of assay [4] is T2, murine p40, FLAG-tagged (FLAG-mp40) (murine) (UniProt P43432).
T2 sequence: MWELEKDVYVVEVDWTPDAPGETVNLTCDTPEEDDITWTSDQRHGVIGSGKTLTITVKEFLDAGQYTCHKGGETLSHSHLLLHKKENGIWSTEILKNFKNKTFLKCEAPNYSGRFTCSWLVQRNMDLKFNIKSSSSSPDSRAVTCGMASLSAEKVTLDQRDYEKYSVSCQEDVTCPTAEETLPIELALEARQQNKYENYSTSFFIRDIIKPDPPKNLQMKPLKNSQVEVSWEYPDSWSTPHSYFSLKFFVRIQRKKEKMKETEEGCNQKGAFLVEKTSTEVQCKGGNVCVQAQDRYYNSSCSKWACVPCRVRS
Described as above.

For assay [5], the target named is T3, murine p40 D36K/W37K/T38K, FLAG-tagged (murine) (UniProt P43432).
T3 sequence: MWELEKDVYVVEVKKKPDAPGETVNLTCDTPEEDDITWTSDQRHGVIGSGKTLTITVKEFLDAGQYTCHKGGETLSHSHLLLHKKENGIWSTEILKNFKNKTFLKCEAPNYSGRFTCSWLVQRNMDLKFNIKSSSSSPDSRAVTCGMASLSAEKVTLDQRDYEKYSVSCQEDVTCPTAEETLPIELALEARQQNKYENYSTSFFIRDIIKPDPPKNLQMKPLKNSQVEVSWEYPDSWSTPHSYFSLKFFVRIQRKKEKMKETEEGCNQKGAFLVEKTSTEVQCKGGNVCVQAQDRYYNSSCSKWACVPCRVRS
The description is as above.

Assay [6] addresses T4, murine IL-23 from FLAG-mp19 coexpressed with mp40 (murine) (UniProt Q9EQ14+P43432).
T4 sequence 1: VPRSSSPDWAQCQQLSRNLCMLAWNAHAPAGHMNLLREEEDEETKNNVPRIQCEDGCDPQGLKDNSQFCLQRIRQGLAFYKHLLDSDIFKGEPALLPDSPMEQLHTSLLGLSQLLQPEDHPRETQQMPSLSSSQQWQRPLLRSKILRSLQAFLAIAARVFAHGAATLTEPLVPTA
T4 sequence 2: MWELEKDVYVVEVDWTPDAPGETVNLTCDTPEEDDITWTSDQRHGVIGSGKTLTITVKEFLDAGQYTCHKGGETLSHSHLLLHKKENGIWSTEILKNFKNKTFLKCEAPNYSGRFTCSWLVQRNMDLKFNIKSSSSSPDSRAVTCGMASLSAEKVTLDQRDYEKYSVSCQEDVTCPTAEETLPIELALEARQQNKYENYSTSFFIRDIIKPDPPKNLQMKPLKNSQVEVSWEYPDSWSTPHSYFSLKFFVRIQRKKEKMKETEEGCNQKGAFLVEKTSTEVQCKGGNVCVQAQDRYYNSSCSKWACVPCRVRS
The description is as above.

Assay [7] deals with T5, murine p19, FLAG-tagged (FLAG-mp19) (murine) (UniProt Q9EQ14).
T5 sequence: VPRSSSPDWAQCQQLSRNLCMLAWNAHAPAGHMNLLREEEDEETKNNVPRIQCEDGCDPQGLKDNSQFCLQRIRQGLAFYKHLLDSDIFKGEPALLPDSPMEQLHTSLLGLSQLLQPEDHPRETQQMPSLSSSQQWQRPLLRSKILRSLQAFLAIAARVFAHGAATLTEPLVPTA
Description: co-IP; FLAG-mp19 coexpressed with the mp40 variant in the same cells; ANTI-FLAG M2 affinity gel; the legend's title tells the p19-p40 interaction, the panel on which it rests is not named.

The target in assay [8] is murine p40 (mp40) secreted from CHO-K1 cells (murine) (UniProt P43432). As to the kind of experiment: (non-)reducing SDS-PAGE with Western blot; 20 μl conditioned supernatant of transiently transfected CHO-K1 separated under (non-)reducing conditions, mp40-specific antibody; covalently linked homodimer p80.
Assay [9] has as its target murine p40 D36K/W37K/T38K secreted from CHO-K1 cells (murine) (UniProt P43432). Described as above.

Turning to “human IL-23 receptor (hIL-23R) (from UniProt Q5VWK5 24-629)”, the binding entry in [1] and in assay [2] was “no binding” throughout.

B1: murine IL-12 receptor β1 (mIL-12Rβ1), full-length (receptor, UniProt Q60837 20-738)
chain: QLGASGPGDGCCVEKTSFPEGASGSPLGPRNLSCYRVSKTDYECSWQYDGPEDNVSHVLWCCFVPPNHTHTGQERCRYFSSGPDRTVQFWEQDGIPVLSKVNFWVESRLGNRTMKSQKISQYLYNWTKTTPPLGHIKVSQSHRQLRMDWNVSEEAGAEVQFRRRMPTTNWTLGDCGPQVNSGSGVLGDIRGSMSESCLCPSENMAQEIQIRRRRRLSSGAPGGPWSDWSMPVCVPPEVLPQAKIKFLVEPLNQGGRRRLTMQGQSPQLAVPEGCRGRPGAQVKKHLVLVRMLSCRCQAQTSKTVPLGKKLNLSGATYDLNVLAKTRFGRSTIQKWHLPAQELTETRALNVSVGGNMTSMQWAAQAPGTTYCLEWQPWFQHRNHTHCTLIVPEEEDPAKMVTHSWSSKPTLEQEECYRITVFASKNPKNPMLWATVLSSYYFGGNASRAGTPRHVSVRNQTGDSVSVEWTASQLSTCPGVLTQYVVRCEAEDGAWESEWLVPPTKTQVTLDGLRSRVMYKVQVRADTARLPGAWSHPQRFSFEVQISRLSIIFASLGSFASVLLVGSLGYIGLNRAAWHLCPPLPTPCGSTAVEFPGSQGKQAWQWCNPEDFPEVLYPRDALVVEMPGDRGDGTESPQAAPECALDTRRPLETQRQRQVQALSEARRLGLAREDCPRGDLAHVTLPLLLGGVTQGASVLDDLWRTHKTAEPGPPTLGQEA
As for B1, the binding entry is “no binding” in assay [3], “binds” in assay [4], “no binding” in [5] and “binds” in assay [6].

B2: murine p40 with D36K/W37K/T38K substitutions, coexpressed with FLAG-mp19 (protein, UniProt P43432 23-335)
chain: MWELEKDVYVVEVKKKPDAPGETVNLTCDTPEEDDITWTSDQRHGVIGSGKTLTITVKEFLDAGQYTCHKGGETLSHSHLLLHKKENGIWSTEILKNFKNKTFLKCEAPNYSGRFTCSWLVQRNMDLKFNIKSSSSSPDSRAVTCGMASLSAEKVTLDQRDYEKYSVSCQEDVTCPTAEETLPIELALEARQQNKYENYSTSFFIRDIIKPDPPKNLQMKPLKNSQVEVSWEYPDSWSTPHSYFSLKFFVRIQRKKEKMKETEEGCNQKGAFLVEKTSTEVQCKGGNVCVQAQDRYYNSSCSKWACVPCRVRS
In the case of B2, in assay [7], the binding entry was “binds”.

B3: murine p40 (mp40) secreted from CHO-K1 cells (protein, UniProt P43432 23-335)
chain: MWELEKDVYVVEVDWTPDAPGETVNLTCDTPEEDDITWTSDQRHGVIGSGKTLTITVKEFLDAGQYTCHKGGETLSHSHLLLHKKENGIWSTEILKNFKNKTFLKCEAPNYSGRFTCSWLVQRNMDLKFNIKSSSSSPDSRAVTCGMASLSAEKVTLDQRDYEKYSVSCQEDVTCPTAEETLPIELALEARQQNKYENYSTSFFIRDIIKPDPPKNLQMKPLKNSQVEVSWEYPDSWSTPHSYFSLKFFVRIQRKKEKMKETEEGCNQKGAFLVEKTSTEVQCKGGNVCVQAQDRYYNSSCSKWACVPCRVRS
Regarding B3, in assay [8], the binding result is recorded as “binds”.

B4: murine p40 D36K/W37K/T38K secreted from CHO-K1 cells (protein, UniProt P43432 23-335)
chain: MWELEKDVYVVEVKKKPDAPGETVNLTCDTPEEDDITWTSDQRHGVIGSGKTLTITVKEFLDAGQYTCHKGGETLSHSHLLLHKKENGIWSTEILKNFKNKTFLKCEAPNYSGRFTCSWLVQRNMDLKFNIKSSSSSPDSRAVTCGMASLSAEKVTLDQRDYEKYSVSCQEDVTCPTAEETLPIELALEARQQNKYENYSTSFFIRDIIKPDPPKNLQMKPLKNSQVEVSWEYPDSWSTPHSYFSLKFFVRIQRKKEKMKETEEGCNQKGAFLVEKTSTEVQCKGGNVCVQAQDRYYNSSCSKWACVPCRVRS
B4: the binding entry in assay [9] is listed as “binds”.

B5: murine IL-23 receptor (mIL-23R), full-length (receptor, UniProt Q8K4B4 24-644)
chain: GITSINCSGDMWVEPGEIFQMGMNVSIYCQEALKHCRPRNLYFYKNGFKEEFDITRINRTTARIWYKGFSEPHAYMHCTAECPGHFQETLICGKDISSGHPPDAPSNLTCVIYEYSGNMTCTWNTGKPTYIDTKYIVHVKSLETEEEQQYLASSYVKISTDSLQGSRKYLVWVQAVNSLGMENSQQLHVHLDDIVIPSASIISRAETTNDTVPKTIVYWKSKTMIEKVFCEMRYKTTTNQTWSVKEFDANFTYVQQSEFYLEPDSKYVFQVRCQETGKRNWQPWSSPFVHQTSQETGKRNWQPWSSPFVHQTSQTVSQVTAKSSHEPQKMEMLSATIFRGHPASGNHQDIGLLSGMVFLAIMLPIFSLIGIFNRSLRIGIKRKVLLMIPKWLYEDIPNMENSNVAKLLQEKSVFENDNASEQALYVDPVLTEISEISPLEHKPTDYKEERLTGLLETRDCPLGMLSTSSSVVYIPDLNTGYKPQVSNVPPGGNLFINRDERDPTSLETTDDHFARLKTYPNFQFSASSMALLNKTLILDELCLVLNQGEFNSLDIKNSRQEETSIVLQSDSPSETIPAQTLLSDEFVSCLAIGNEDLPSINSYFPQNVLESHFSRISLFQK
With B5, the binding result was “binds” in assay [3], “no binding” in [4], “no binding” in [5] and “binds” in assay [6].
